{
  "source": "the supplement of paper PMC11417369",
  "note": "The list shows a part of the results.",
  "data": [
    {"tested_on": "PfHDP1 homeodomain (GST-tagged)", "experiment": "gcPBM binding intensity (ln(normalized median fluorescence intensity)); higher = stronger DNA binding", "in_short": "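Alexa488 anti-GST antibody, scanned at 488 nm, detected GST-tagged P. falciparum DNA-binding domains that had been expressed in E. coli and incubated for 1 h on an Agilent 4 × 180k array. The array carried primer-extended double-stranded 36-bp intergenic genomic probes and negative controls. Binding intensity is the highest Masliner-normalised natural-log median intensity across replicate spots of either orientation of each probe.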", "values": [
      {"sequence": "AGGGTTCATATATTAACACACACATACATATTATAT [CACACA_site8959]", "gcPBM binding intensity (ln)": 6.72},
      {"sequence": "AGTATTCTAATTTTTAAACACACAAATATAAATAAG [CACACA_site9029]", "gcPBM binding intensity (ln)": 6.47},
      {"sequence": "TATACACATATATATAGTACATATATAATTTACTAT [XGTACX_site1849]", "gcPBM binding intensity (ln)": 6.63},
      {"sequence": "ATATATACCTATATTACACACTTCTTATTCTAAGAA [CACACA_site7421]", "gcPBM binding intensity (ln)": 6.37},
      {"sequence": "ATTGTTACATAAAATGCACACTTTCAAATATGCTAA [CACACA_site5600]", "gcPBM binding intensity (ln)": 9.94},
      {"sequence": "TTAAAAAACATTTGAACATGCAATTGTATATGTAGA [TGCATGCA_site334]", "gcPBM binding intensity (ln)": 6.83},
      {"sequence": "AAATATCAACTCAAATGTACAAATCACAAAAATGTA [XGTACX_site5344]", "gcPBM binding intensity (ln)": 6.47},
      {"sequence": "ATATATGATGTATTTGTGCACATATATATATTATTA [GTGCAC_site9471]", "gcPBM binding intensity (ln)": 10.7},
      {"sequence": "ATATTAAAAAGGAAATGTACGTAATGAAGATCAAGT [XGTACX_site3138]", "gcPBM binding intensity (ln)": 7.76},
      {"sequence": "TAAATAAAAAGACACACACACATATTTATATTTATA [CACACA_site7135]", "gcPBM binding intensity (ln)": 6.84},
      {"sequence": "GAGAAAAATATATACACACACATAAATATATACATA [CACACA_site1895]", "gcPBM binding intensity (ln)": 6.61},
      {"sequence": "TAAATTGGTGCAAAGTGTACATATATATCTTTCCTA [XGTACX_site5458]", "gcPBM binding intensity (ln)": 10.4},
      {"sequence": "TTCATATATAATTGTACACACAAAAACGACATTGTG [CACACA_site2074]", "gcPBM binding intensity (ln)": 7.05},
      {"sequence": "GGAAATAAAATTAAATGTACGAAAACTCATTAAATT [XGTACX_site4274]", "gcPBM binding intensity (ln)": 5.83},
      {"sequence": "TAAATATGAGGGAACACACACATGATATATAAATTC [CACACA_site2400]", "gcPBM binding intensity (ln)": 6.63},
      {"sequence": "TATACTCATGGACACACACACATACACAGACATACA [CACACA_site5024]", "gcPBM binding intensity (ln)": 6.95},
      {"sequence": "AAACGGGAGAAATAAAAATAAAAATAATAAAACAAA [XGTACX_negctrl_site586]", "gcPBM binding intensity (ln)": 6.78},
      {"sequence": "TGAAAGAATAGAATGAGTACTAATTTAAATTACACT [XGTACX_site1120]", "gcPBM binding intensity (ln)": 6.57},
      {"sequence": "TTGATTTCATTTTAAGTGCATAACTAATATTATATA [GTGCAC_site9713]", "gcPBM binding intensity (ln)": 9.53},
      {"sequence": "TTCTTTATATATTTTTGTACATATTTATTTTTAGAG [XGTACX_site6757]", "gcPBM binding intensity (ln)": 6.91},
      {"sequence": "ATATACAAAGAAGCAGTGCATATTTTCTTATTTATG [GTGCAC_site9567]", "gcPBM binding intensity (ln)": 8.05},
      {"sequence": "ATTACCAACAGATCTTGTACATATTAAAGCATCTTA [XGTACX_site2361]", "gcPBM binding intensity (ln)": 6.42},
      {"sequence": "TAAGTACGACTTGACACACATACACATATATATATA [CACACA_site1286]", "gcPBM binding intensity (ln)": 9.06},
      {"sequence": "CAAATACACCAACACACACACACAAAAAAAAAAAAA [CACACA_site514]", "gcPBM binding intensity (ln)": 6.8},
      {"sequence": "AAAAAATAAAAAATATGTACACATTCAAAATTTTAC [XGTACX_site8479]", "gcPBM binding intensity (ln)": 6.52},
      {"sequence": "TGTGCTTATCCTAACACACACAACATATAAGAAAAA [CACACA_site3319]", "gcPBM binding intensity (ln)": 6.99},
      {"sequence": "TATACATATTTATACACACACACATATATTTATATA [CACACA_site6727]", "gcPBM binding intensity (ln)": 7.04},
      {"sequence": "ATATATATATATATATGTACATATTACATTACTTAT [XGTACX_site749]", "gcPBM binding intensity (ln)": 9.33},
      {"sequence": "AAAAAGAAAAAAAACACACACAAATATAAATAAATA [CACACA_site1183]", "gcPBM binding intensity (ln)": 6.67},
      {"sequence": "TTTTTTGCTAAGTGTACACAAATGTTTATTAATTTA [CACACA_site5859]", "gcPBM binding intensity (ln)": 7.27},
      {"sequence": "TCTTTGGTAATATATATGTATAAATATAAATATATA [CACACA_negctrl_site1566]", "gcPBM binding intensity (ln)": 6.15},
      {"sequence": "ATATATATATATGTTAGTACATAACAAGTGTGCATA [XGTACX_site1527]", "gcPBM binding intensity (ln)": 9.87},
      {"sequence": "ATAAAACAAGCAAATCGTACAAAAGGATAATATATA [XGTACX_site5592]", "gcPBM binding intensity (ln)": 6.84},
      {"sequence": "TTAGGTAGAAAAAAGACACACACATTATATATATAT [CACACA_site8016]", "gcPBM binding intensity (ln)": 8.65},
      {"sequence": "ATATATATTTAAGAGGGTACAAAAATTTATGAGCAT [XGTACX_site6156]", "gcPBM binding intensity (ln)": 7.09},
      {"sequence": "ATGTATGGTTTATATGTTCATTTGTTCACCTATTTA [CACACA_negctrl_site1533]", "gcPBM binding intensity (ln)": 6.88},
      {"sequence": "AAAAAAAAAAAAAACACACACACACCCATACCCATA [CACACA_site5577]", "gcPBM binding intensity (ln)": 6.85},
      {"sequence": "ATCATTCATTTAACAACACACAACATATTTATCATA [CACACA_site1041]", "gcPBM binding intensity (ln)": 6.72},
      {"sequence": "AAATAGTTCATAAAAAGTACAAAATTTTTATCCGTA [XGTACX_site2796]", "gcPBM binding intensity (ln)": 6.13},
      {"sequence": "TATAAAGGTTGGTACTGTACAATATAAGAAAAAAAA [XGTACX_site435]", "gcPBM binding intensity (ln)": 6.86},
      {"sequence": "TATATATTATATAAGAGTACATATAATTATAGTTTT [XGTACX_site5039]", "gcPBM binding intensity (ln)": 6.23},
      {"sequence": "GTATATATTTCCAGAAGTACTTATTTTTATGTATGT [XGTACX_site4079]", "gcPBM binding intensity (ln)": 6.66},
      {"sequence": "TTTATTTTGACAGATTGTACACTTTATACATGTTTT [XGTACX_site2356]", "gcPBM binding intensity (ln)": 6.8},
      {"sequence": "AATCTATATTAATACACACACACATATATTTATATA [CACACA_site7732]", "gcPBM binding intensity (ln)": 6.93},
      {"sequence": "TGAAAAAAGAAAAATACACACATATAACATAATATA [CACACA_site7126]", "gcPBM binding intensity (ln)": 6.67},
      {"sequence": "AAAAATGCCAGAAAACGTACTCGGATTTTCTAATAT [XGTACX_site6552]", "gcPBM binding intensity (ln)": 6.02},
      {"sequence": "TGATTACATATGATGTGTACCTAATTTTGTTTACAC [XGTACX_site7032]", "gcPBM binding intensity (ln)": 6.33},
      {"sequence": "TTTTAATATTTTGCCTGTACATAAAAGTGAGAAGAT [XGTACX_site2503]", "gcPBM binding intensity (ln)": 7},
      {"sequence": "AAAACACGCGGACACACACACACACCCACCCATATA [CACACA_site8688]", "gcPBM binding intensity (ln)": 6.58},
      {"sequence": "TTATATTTATTGATATGTACATATTATAATTAATTA [XGTACX_site586]", "gcPBM binding intensity (ln)": 6.62},
      {"sequence": "TTACACATATTTTTAATTATTCTGAATTCAAAAAAA [CACACA_negctrl_site1706]", "gcPBM binding intensity (ln)": 6.18},
      {"sequence": "GTAATATTAAAATATACACACATAGAATATATATAT [CACACA_site4391]", "gcPBM binding intensity (ln)": 8.2},
      {"sequence": "ATAATCATAAAATAAACACACATATATAAATATATT [CACACA_site276]", "gcPBM binding intensity (ln)": 6.37},
      {"sequence": "GTGTGGAGTTACAAAGAGGAGAACCTCACAGTAATC [CACACA_negctrl_site527]", "gcPBM binding intensity (ln)": 6.48},
      {"sequence": "TTACTCTTTATATAATGTACATATATATATATATTA [XGTACX_site2624]", "gcPBM binding intensity (ln)": 6.74},
      {"sequence": "AAATTCGTTATAAAAACATGCAACGATCAACATTGT [TGCATGCA_site844]", "gcPBM binding intensity (ln)": 6.4}
    ]}
  ]
}
